Among the data in PMC9590400 are binding values, retold here.

Chains of the proteins cited; added tags and fusions are not shown. Lines headed by an entry give the natural chain unless they say otherwise; changes in a name come on top.
UniProt Q9P209: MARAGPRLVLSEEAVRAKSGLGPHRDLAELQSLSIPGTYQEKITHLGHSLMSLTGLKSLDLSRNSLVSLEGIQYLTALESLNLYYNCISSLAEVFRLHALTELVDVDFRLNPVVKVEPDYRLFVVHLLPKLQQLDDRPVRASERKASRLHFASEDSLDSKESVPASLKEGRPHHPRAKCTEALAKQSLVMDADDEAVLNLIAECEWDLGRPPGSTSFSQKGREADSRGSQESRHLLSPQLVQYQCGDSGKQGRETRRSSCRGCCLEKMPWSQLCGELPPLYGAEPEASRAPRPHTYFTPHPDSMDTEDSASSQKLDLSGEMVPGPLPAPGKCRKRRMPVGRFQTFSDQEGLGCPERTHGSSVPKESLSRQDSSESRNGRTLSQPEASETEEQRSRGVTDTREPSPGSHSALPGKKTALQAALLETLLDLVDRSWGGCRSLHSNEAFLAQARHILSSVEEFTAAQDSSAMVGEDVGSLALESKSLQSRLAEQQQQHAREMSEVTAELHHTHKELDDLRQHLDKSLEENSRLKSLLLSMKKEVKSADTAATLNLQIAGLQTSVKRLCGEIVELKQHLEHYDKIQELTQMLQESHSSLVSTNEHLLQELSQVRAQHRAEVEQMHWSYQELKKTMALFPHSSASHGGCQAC
UniProt Q14980: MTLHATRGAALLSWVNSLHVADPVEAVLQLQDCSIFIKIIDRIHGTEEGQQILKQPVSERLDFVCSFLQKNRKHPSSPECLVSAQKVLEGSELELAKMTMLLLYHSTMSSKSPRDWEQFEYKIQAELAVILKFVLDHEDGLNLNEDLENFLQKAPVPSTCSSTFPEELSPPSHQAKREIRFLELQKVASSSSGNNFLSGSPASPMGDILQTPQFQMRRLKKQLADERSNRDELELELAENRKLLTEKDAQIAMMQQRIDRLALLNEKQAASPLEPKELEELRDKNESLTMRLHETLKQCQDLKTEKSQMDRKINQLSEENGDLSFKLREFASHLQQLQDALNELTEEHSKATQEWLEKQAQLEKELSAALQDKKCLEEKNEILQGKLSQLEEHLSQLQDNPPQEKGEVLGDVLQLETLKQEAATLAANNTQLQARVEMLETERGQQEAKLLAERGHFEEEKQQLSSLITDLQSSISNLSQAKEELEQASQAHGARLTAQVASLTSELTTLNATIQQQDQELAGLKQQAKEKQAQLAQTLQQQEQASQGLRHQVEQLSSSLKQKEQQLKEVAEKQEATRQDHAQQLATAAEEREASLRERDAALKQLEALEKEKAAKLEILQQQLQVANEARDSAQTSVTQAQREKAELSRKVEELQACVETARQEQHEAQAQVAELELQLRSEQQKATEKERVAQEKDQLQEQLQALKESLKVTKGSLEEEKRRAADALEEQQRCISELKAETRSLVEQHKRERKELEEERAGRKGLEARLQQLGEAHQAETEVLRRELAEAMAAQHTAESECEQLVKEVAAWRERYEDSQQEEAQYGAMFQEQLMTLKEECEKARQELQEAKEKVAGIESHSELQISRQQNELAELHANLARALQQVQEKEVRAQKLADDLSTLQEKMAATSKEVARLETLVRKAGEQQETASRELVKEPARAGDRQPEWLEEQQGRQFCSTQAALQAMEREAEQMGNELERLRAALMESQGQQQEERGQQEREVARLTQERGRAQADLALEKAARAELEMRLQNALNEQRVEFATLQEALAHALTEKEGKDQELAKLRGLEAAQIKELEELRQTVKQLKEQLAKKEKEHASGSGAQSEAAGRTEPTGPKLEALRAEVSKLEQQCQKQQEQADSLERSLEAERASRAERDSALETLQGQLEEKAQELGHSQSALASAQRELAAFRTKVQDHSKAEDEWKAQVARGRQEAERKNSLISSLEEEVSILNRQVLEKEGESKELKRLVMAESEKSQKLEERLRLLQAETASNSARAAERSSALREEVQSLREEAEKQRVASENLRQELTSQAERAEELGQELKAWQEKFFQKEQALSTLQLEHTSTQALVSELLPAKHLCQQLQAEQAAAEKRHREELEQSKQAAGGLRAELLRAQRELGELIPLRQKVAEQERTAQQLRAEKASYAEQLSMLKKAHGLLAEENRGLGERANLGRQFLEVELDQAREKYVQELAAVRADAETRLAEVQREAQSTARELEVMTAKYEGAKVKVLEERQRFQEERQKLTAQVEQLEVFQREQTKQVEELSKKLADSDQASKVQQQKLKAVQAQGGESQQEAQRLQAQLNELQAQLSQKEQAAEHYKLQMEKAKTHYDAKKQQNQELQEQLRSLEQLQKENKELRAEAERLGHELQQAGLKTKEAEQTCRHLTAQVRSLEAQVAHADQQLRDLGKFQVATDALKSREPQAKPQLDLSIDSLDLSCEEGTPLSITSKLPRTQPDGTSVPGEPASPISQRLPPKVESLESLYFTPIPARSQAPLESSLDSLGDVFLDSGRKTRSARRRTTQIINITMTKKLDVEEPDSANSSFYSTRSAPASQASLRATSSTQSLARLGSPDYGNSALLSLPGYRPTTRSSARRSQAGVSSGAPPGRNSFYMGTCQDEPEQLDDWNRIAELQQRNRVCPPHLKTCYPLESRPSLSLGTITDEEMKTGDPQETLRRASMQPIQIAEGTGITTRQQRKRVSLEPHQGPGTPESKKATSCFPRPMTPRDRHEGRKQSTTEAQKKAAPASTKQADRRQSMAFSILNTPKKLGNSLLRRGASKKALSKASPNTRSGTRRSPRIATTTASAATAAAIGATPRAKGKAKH

No constants are given. Whether binding was seen depends on the method and setting. For some assays here: Binding seen in cells or lysates may run through a third protein. Some results given as binding are weak or reduced against the parent protein; the word gives no strength. For some assays here: Tags and fused reporters may be left off the sequences shown.

Experiment [1] has as its target T1, GFP-tagged HCR coiled-coil 3 fragment (aa 441-782) expressed in HeLa cells (human) (UniProt Q8TD31).
T1 sequence: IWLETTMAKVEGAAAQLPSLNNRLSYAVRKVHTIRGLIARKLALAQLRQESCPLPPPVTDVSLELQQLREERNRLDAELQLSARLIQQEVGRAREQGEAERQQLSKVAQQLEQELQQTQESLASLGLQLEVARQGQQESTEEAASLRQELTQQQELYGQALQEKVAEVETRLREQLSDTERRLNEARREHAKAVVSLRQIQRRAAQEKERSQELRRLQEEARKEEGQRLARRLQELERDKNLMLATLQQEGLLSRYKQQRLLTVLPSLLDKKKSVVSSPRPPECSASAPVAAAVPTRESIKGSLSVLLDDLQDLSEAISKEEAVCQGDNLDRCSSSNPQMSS
In words: co-IP; HeLa cells transfected with one tagged HCR construct (GFP-HCR-CC3 or HCR-mCherry); precipitated by the tag's antibody; endogenous partner detected by western blot. For orientation: A western blot detects proteins with antibodies after separation by electrophoresis.

The target in experiment [2] is T2, Coiled-coil alpha-helical rod protein 1 (HCR), endogenous in HeLa (human (endogenous in HeLa)) (UniProt Q8TD31).
T2 sequence: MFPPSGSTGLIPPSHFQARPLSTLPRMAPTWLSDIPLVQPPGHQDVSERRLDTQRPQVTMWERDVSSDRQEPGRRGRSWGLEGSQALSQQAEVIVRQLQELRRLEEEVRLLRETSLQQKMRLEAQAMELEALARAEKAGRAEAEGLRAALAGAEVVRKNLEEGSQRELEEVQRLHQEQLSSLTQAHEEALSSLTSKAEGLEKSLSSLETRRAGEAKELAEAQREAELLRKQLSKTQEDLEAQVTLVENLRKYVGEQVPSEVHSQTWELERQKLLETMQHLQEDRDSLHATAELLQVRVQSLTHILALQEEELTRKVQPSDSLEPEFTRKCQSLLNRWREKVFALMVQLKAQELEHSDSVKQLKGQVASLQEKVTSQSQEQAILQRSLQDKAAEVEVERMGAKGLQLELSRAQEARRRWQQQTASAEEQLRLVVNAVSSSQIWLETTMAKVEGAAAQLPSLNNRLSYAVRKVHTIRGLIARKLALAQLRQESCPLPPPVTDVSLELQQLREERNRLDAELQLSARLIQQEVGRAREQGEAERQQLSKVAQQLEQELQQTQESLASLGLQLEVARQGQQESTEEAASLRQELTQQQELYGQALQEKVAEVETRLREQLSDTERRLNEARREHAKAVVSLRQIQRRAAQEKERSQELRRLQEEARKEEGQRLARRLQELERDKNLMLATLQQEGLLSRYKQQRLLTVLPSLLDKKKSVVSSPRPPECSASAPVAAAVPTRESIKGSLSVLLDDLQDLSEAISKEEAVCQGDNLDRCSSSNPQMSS
In words: co-IP; endogenous proteins in HeLa cell lysates (50 mM Tris, 150 mM NaCl, 0.1% NP40); antibody to one partner or control rabbit IgG, protein A and protein G beads, 4 °C; western blot.

Experiment [3] concerns the target T3, astrin (sperm-associated antigen 5), endogenous in HeLa (human (endogenous in HeLa)) (UniProt Q96R06).
T3 sequence: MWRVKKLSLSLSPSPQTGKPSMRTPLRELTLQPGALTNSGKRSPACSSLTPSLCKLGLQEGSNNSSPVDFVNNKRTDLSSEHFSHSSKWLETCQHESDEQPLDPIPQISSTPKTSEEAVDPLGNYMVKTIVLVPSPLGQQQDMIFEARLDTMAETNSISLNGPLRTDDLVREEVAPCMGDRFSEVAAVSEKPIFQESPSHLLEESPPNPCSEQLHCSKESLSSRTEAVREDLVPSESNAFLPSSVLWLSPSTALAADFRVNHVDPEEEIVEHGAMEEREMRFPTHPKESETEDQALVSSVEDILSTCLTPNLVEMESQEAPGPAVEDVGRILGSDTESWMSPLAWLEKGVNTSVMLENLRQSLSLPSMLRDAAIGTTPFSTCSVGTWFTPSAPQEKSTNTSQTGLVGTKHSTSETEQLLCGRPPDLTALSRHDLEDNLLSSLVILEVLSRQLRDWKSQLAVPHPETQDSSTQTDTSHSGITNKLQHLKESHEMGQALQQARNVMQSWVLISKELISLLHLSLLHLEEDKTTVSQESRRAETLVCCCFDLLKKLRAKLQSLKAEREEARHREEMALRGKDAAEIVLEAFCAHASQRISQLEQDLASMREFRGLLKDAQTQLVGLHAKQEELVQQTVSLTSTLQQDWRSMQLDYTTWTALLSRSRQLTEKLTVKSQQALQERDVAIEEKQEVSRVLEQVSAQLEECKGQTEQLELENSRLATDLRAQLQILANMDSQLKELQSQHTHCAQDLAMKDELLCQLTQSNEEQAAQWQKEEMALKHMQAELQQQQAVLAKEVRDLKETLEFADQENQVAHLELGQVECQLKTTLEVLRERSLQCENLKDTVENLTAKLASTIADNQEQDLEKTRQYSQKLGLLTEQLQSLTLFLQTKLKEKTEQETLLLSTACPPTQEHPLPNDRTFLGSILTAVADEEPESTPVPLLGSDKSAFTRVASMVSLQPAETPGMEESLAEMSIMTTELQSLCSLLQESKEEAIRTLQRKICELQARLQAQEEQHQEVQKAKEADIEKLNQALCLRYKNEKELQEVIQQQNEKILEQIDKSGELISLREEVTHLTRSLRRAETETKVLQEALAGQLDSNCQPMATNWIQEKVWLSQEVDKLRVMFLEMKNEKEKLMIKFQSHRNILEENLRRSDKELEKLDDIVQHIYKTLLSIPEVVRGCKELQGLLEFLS
The experiment is described as above.

The target in experiment [4] is T4, HCR-mCherry expressed in HeLa cells (human) (UniProt Q8TD31).
T4 sequence: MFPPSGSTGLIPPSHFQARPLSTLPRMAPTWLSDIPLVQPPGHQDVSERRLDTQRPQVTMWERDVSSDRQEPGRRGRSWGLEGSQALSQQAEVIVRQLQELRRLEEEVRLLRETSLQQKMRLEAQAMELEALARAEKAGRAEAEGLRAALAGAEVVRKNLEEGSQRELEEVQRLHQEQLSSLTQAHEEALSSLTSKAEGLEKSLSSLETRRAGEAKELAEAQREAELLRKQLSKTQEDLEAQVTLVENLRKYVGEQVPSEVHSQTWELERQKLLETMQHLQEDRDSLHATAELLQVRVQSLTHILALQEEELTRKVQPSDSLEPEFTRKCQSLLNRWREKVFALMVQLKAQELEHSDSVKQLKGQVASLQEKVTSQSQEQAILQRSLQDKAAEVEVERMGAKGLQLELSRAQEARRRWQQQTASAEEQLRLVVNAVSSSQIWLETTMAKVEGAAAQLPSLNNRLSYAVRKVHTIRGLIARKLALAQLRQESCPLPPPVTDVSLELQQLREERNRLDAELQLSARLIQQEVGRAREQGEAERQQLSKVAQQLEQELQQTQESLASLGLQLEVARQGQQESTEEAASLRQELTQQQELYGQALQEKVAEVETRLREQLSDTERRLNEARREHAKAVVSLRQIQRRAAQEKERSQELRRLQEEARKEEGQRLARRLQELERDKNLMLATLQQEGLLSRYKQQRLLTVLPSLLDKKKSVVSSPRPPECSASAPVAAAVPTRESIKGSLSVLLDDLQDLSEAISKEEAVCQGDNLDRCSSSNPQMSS
In words: co-IP; HeLa cells transfected with one tagged HCR construct (GFP-HCR-CC3 or HCR-mCherry); precipitated by the tag's antibody; endogenous partner detected by western blot.

Experiment [5] concerns the target GST-tagged CEP72 purified from E. coli (UniProt Q9P209). In words: pull-down; GST-tagged protein and His-tagged HCR fragments, both purified from E. coli BL21(DE3); GST pull-down in vitro; both purified.

Regarding “CEP72, endogenous in HeLa (from UniProt Q9P209-1 1-647)”, the binding entry in experiment [1], in experiment [2] and in experiment [3] was “binds” each time.
For “NuMA, endogenous in HeLa (from UniProt Q14980 1-2115)”, the binding result in experiment [4] is reported as “binds”.

B1: His-tagged HCR third coiled-coil region purified from E. coli (domain or fragment, UniProt Q8TD31-1 441-782)
chain: IWLETTMAKVEGAAAQLPSLNNRLSYAVRKVHTIRGLIARKLALAQLRQESCPLPPPVTDVSLELQQLREERNRLDAELQLSARLIQQEVGRAREQGEAERQQLSKVAQQLEQELQQTQESLASLGLQLEVARQGQQESTEEAASLRQELTQQQELYGQALQEKVAEVETRLREQLSDTERRLNEARREHAKAVVSLRQIQRRAAQEKERSQELRRLQEEARKEEGQRLARRLQELERDKNLMLATLQQEGLLSRYKQQRLLTVLPSLLDKKKSVVSSPRPPECSASAPVAAAVPTRESIKGSLSVLLDDLQDLSEAISKEEAVCQGDNLDRCSSSNPQMSS
On to B1, for which, in experiment [5], the binding result is reported as “binds”.
